# Experimental data from publication PMC9574860, “Chemical Toolkit for PARK7: Potent, Selective, and High-Throughput” (Journal of Medicinal Chemistry, 2022).
# Hit rate of the full screen: of about 7,900 compounds, about 400 (5.1%) showed an effect of 50% or more. Some of the results follow.
# Molecular target: Parkinson's disease protein 7 (PARK7/DJ1) (human, UniProt Q99497)
# Test: primary screen, percent inhibition; read as competition with a fluorescent probe by fluorescence polarization; higher = more effect of the substance
# Details: 100 µM
# Protocol: The screen was conducted using the conditions as described above in 1536-well plates (Corning 3724) with a reaction volume of 8 μL per well. The compound library containing 7887 covalent fragments was purchased at Enamine Ltd. and received as 100 mM DMSO stocks in 384 well LDV Echo plates (Labcyte LP-0200). Stock solutions of 0.26 μM PARK7 and 80 nM JYQ-107 were prepared. Using a Labcyte Echo550 acoustic dispenser, 8 nL of the DMSO stock solution of the library compounds was transferred from the source plates into the empty 1536-well screening plates to obtain a 100 μM final compound concentration. Next, PARK7 (6 μL, final concentration 0.2 μM) was dispensed using a Biotek MultiflowFX liquid dispenser and incubated for 2 h, followed by dispensing the probe JYQ-107 (2 μL, final concentration 20 nM). After 2 h incubation, the FP signal was recorded on a BMG Labtech PHERAstar plate reader (λex/em 480/520 nm). The relative loss of FP signal compared with reference controls was used to calculate the remaining enzyme activity.
# Chain of Parkinson's disease protein 7 (PARK7/DJ1) (Q99497 whole entry, looked up): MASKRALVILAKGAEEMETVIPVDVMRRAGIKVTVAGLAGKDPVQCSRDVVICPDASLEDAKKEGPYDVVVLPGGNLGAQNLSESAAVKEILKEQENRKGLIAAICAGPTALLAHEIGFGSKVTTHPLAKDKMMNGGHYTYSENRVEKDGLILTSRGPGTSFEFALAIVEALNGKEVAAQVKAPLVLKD
row,SMILES,Inhibition %
1,O=C(CCl)N1CCOC1=O,31.6%
2,C=CC(=O)N1CC(CC#N)C1,7.7%
3,C=CC(=O)Nc1nc2cc3c(cc2s1)OCCO3,1.49%
4,Cc1ccc(NC(=O)NC(=O)CCl)cc1,8.73%
5,N#Cc1ccc(N2CCCC2C(=O)NC2CC2)cn1 (stereo not drawn),8.87%
6,O=C(CCl)NCC1CN(Cc2ccccc2)CCO1 (stereo not drawn),27.2%
7,CC(C)NC(=O)c1ccccc1NC(=O)CCl,2.5%
8,Cc1oc(C(=O)O)cc1C(=O)CCl,92.2%
9,O=c1[nH]nc(-c2ccco2)o1,50.5%
10,N#CNC(=O)c1ccccc1Cl,5.75%
11,Cc1cnccc1CCNC(=O)c1cccnc1S,4.25%
12,O=c1[nH]nc(S)n2cccc12,26.7%
13,Cc1ccc(S(=O)(=O)n2ccnc2C)cc1,3.4%
14,CN(C)C1(CNC(=O)CCl)CCCCC1.Cl,3.04%
15,CC(C)N(C(=O)Cn1cnc(C#N)n1)c1ccccc1,8.33%
16,Cc1ccc(C(=O)O)cc1S(=O)(=O)F,99.4%
17,O=C(CCl)N1CCC(c2nc3ccccc3o2)CC1,20.5%
18,O=C(c1ccccc1)N1CCCC(S(=O)(=O)F)C1 (stereo not drawn),32.4%
19,C=CC(=O)N1CCN(S(=O)(=O)N(C)C2CCCCC2)CC1,5.64%
20,COc1ccc(S(=O)(=O)n2ccnc2C)c(C)c1C,1.84%
21,N#Cc1nccc2ccccc12,5.57%
22,COCC(C)n1c(S)nc2ccccc2c1=O (stereo not drawn),10.1%
23,C=CC(=O)NC1(c2ncon2)CCOCC1,0.948%
24,Cc1cc(S(N)(=O)=O)cc(NC(=O)CCl)c1C,2.37%
25,CN(C)C(=O)c1cccc(CN2C(=O)CSC2=O)c1,29.9%

row,SMILES,Inhibition %
1,CC1(C)OB(c2ccc3c(c2)CC(=O)N3)OC1(C)C,5.99%
2,C=CC(=O)N1CCC(F)(c2ccccc2)C1 (stereo not drawn),8.62%
3,Cc1cc(C)c(C(=O)Cn2cnc(C#N)n2)c(C)c1,10%
4,CC(C)C(CNC(=O)CCl)c1ccccc1 (stereo not drawn),33%
5,COc1ccc(S(=O)(=O)N(C)C)cc1NC(=O)CCl,20.4%
6,Cc1ccc(NC(=O)CCl)cc1I,81.5%
7,C=CC(=O)NC1(C#N)CCOC1 (stereo not drawn),2.26%
8,Cc1nc(C2(NC(=O)CCl)CCCCCC2)no1,-2.32%
9,O=C(Nc1cccc(-c2noc(=O)[nH]2)c1)C1CC1,10.1%
10,C=CC(=O)N1CCC(c2ncc(C)s2)CC1,1.87%
11,C=CC(=O)N1CCCN(C(=O)c2ccco2)CC1,1.97%
12,C=CC(=O)NC1CCOc2ccccc21 (stereo not drawn),4.4%
13,CC1(C)OB(c2cc(-c3ccccc3)co2)OC1(C)C,85.9%
14,Cc1cc(S)nc(C(C)C)n1,32.8%
15,C=CC(=O)N1CCc2ccccc2C1,11.5%
16,CC(C)n1nccc1NC(=O)CCl,15.5%
17,C=CC(=O)NC1CC2CCCCN2C1=O (stereo not drawn),6.4%
18,Cc1ccc(C=CS(=O)(=O)NC2(CN)CCCC2)cc1.Cl,3.12%
19,CC1(C)OB(c2ccc(CN)cc2)OC1(C)C.Cl,4.13%
20,N#Cc1coc(C2CC2)n1,10.5%
21,CS(=O)(=O)c1cccc(NC(=O)CCl)c1,7.34%
22,C=CCNC(=O)C(C#N)=Cc1cccc(C(F)(F)F)c1,9.69%
23,C=CC(=O)N(C)C1CCN(c2ncnc3ccccc23)CC1,16.8%
24,Cc1nc(C2CCCCN2C(=O)c2cc(S(=O)(=O)F)c[nH]2)n[nH]1 (stereo not drawn),5.24%
25,N#Cc1c(NC(=O)CCl)sc2c1CCC2,9.04%

row,SMILES,Inhibition %
1,CS(=O)(=O)c1ccc(OCCCl)cc1,4.09%
2,CN(C)C(=O)CNS(=O)(=O)C=Cc1ccc(Cl)cc1,-1.97%
3,CCc1oc2ccccc2c1C=CC(=O)N1CCC(N)C1 (stereo not drawn),5.91%
4,O=C(C=Cc1c(Cl)nc2sccn12)N1CCCCC1,5.55%
5,O=C(CS)Nc1ccccc1,50.4%
6,CC1(C)OB(C2(N)CCC2)OC1(C)C.Cl,8.29%
7,Fc1cc(F)c2c(c1)CCN2CCC1OCCO1,18.8%
8,C=CC(=O)NC1CCOC2(CCSCC2)C1 (stereo not drawn),3.91%
9,C=CC(=O)N1CCC2(CCOCC2)C1C (stereo not drawn),8.76%
10,C=CC(=O)NCC1(c2ccc(Cl)cc2)CC1,2.93%
11,Cl.O=C1CC2(CNC2)N1Cc1ccccc1,7.88%
12,Cc1ccc(C)c(B2OC(C)(C)C(C)(C)O2)c1,6.88%
13,C=CC(=O)Nc1ccc(OCC)c(CO)c1,4.38%
14,CC(C)(C#N)CC(=O)N1CCC(C2NC(=O)C2(C)C)CC1 (stereo not drawn),7.05%
15,NC(=O)C1(NS(=O)(=O)C=Cc2ccccc2)CCCC1,8.21%
16,O=C(CCl)c1ccc(O)cc1O,81.9%
17,Cc1sc(NC(=O)CCl)c(C#N)c1C,9.37%
18,Cc1nn(C)c(C)c1C=CC(=O)N1CC(C)CC(C)C1 (stereo not drawn),8.17%
19,CC1(C)OB(Cc2ccc(F)cc2)OC1(C)C,1.29%
20,CC1CN(c2ccc(NC(=O)CCl)cc2)CC(C)O1 (stereo not drawn),3.61%
21,CC1(C)OB(c2c(Cl)cccc2Cl)OC1(C)C,1.49%
22,Cc1cc(B(O)O)ccc1OCc1cccc(Cl)c1,4.79%
23,CC(C)c1ccc(CN2CCN(C(=O)CCl)CC2)cc1.Cl,2.76%
24,C=CC(=O)N1CCN(c2ccccc2)CC1,7.23%
25,C=CC(=O)N1CCCC(c2nnc(C)o2)C1 (stereo not drawn),-0.0503%

row,SMILES,Inhibition %
1,C=CC(=O)N1C[C@H](OC)C[C@H]1c1nc(C2CC2)n[nH]1,8.48%
2,CN(Cc1cc(Cl)cc(Cl)c1)C(=O)CCl,32.4%
3,CC1CC(N2CCC(N3CCN(C)C3=O)CC2)C(=O)O1 (stereo not drawn),5.28%
4,C=CC(=O)NCC1COC(=O)N1 (stereo not drawn),13.5%
5,Cc1cc(N(CCC#N)C(=O)CCl)ccc1Cl,16.2%
6,C=CC(=O)N1CCN(Cc2nc(C)c(C)o2)CC1,0.857%
7,C=CC(=O)N1C[C@]2(C)CC[C@@H](C2)C1(C)C,15%
8,N#CC(=Cc1ccncc1)C(=O)Nc1ccccc1Cl,8.38%
9,N#CC=C([O-])C1CCCO1.[Na+] (stereo not drawn),16.6%
10,C=CC(=O)NCC1(C)CCC(OC)CC1 (stereo not drawn),8.04%
11,C=CC(=O)N1CCCC(c2nc(-c3ccccc3)n[nH]2)C1 (stereo not drawn),1.87%
12,O=C1OCCC1Sc1nnc2n1CCCCC2 (stereo not drawn),-2.49%
13,C=CC(=O)NC1CC(OCC)C12CCC2 (stereo not drawn),7.24%
14,CNC(=O)Cn1cc(NC(=O)CCl)cn1,20%
15,Cc1cc(NS(=O)(=O)C=Cc2ccccc2)n(C)n1,15.4%
16,N#Cc1nc(-c2ccc(Cl)c(Cl)c2)oc1N,5.93%
17,CCc1cccc([B-](OC(C)C)(OC(C)C)OC(C)C)n1.[Li+],10.5%
18,C=CC(=O)NC1CCc2c(OC)cccc21 (stereo not drawn),4.88%
19,N#Cc1nn(CC(=O)N2CCCCCC2)c2ccccc12,2.91%
20,N#Cc1ncccc1Cl,0.27%
21,CN(C(=O)C(C#N)=Cc1ccco1)c1ccc(F)cc1,8.11%
22,N#CC(=Cc1c[nH]c2ccccc12)C(=O)N1CCCC1,7.42%
23,O=C1OCCC1Sc1nnc(-c2ccccc2F)o1 (stereo not drawn),1.18%
24,Cl.NCc1cccc(N2CCC2=O)c1,4.34%
25,CC(C)(C)C1CC=C(B2OC(C)(C)C(C)(C)O2)CC1 (stereo not drawn),2.59%

row,SMILES,Inhibition %
1,C=CC(=O)N1CCCN(C(=O)CC)CC1,-4.88%
2,O=C1OCC[C@@H]1NS(=O)(=O)c1cnc2ccsc2c1,8.91%
3,CCCC(C#N)NS(=O)(=O)c1cccc(S(=O)(=O)F)c1 (stereo not drawn),96.8%
4,C=CC(=O)N(Cc1cccc(-c2cccnc2)c1)C1CC1,12.4%
5,Cc1ccc(NC(=O)CN2CCSC2=O)c(C)c1,2.95%
6,CN(C)c1ccc(CNC(=O)n2ccnc2)cc1,97%
7,C=CC(=O)N1CCC(S(=O)(=O)N2CCCC2)CC1,3.5%
8,N#Cc1cc(N2CC(O)C2)c2ccccc2n1,9.88%
9,C=CC(=O)NCc1ccc2cnn(C)c2c1,2.83%
10,C=CC(=O)NC1CC2CCCC(C1)N2C1CC1 (stereo not drawn),7.52%
11,CC1CN(C(=O)CCl)CC(C)(C)O1 (stereo not drawn),22.7%
12,O=S(=O)(F)c1ccc(S(=O)(=O)Nc2ccncc2F)cc1,17.6%
13,C=CC(=O)NC[C@]1(C)CC[C@H](C)C1(C)C,3.54%
14,C=CC(=O)N1C[C@@]2(C)CS(=O)(=O)C[C@@]2(C)C1,5.67%
15,OB(O)c1ccc(OCCCN2CCCCC2)cc1,6.33%
16,C=CC(=O)N1CC2(CCCCC2)C1,6.22%
17,Cc1ccc(C=CS(=O)(=O)Nc2ccc(C#N)cn2)cc1,11.1%
18,CN1CCCC1CCl.Cl (stereo not drawn),4.93%
19,O=C(N1CCc2[nH]c3ccccc3c2C1)n1ccnc1,52.4%
20,CC(=O)Nc1ccc(C=C(C#N)C(=O)N2CCCC2)cc1,14.9%
21,C=CC(=O)N1CCC(c2cc(C)ccn2)C1 (stereo not drawn),13.9%
22,C=CC(=O)NCc1ccno1,4.01%
23,COC1(C)CC(NC(=O)C(C#N)=Cc2ccco2)C1(C)C (stereo not drawn),11.4%
